Measured values from PubChem BioAssay AID493208 (National Center for Advancing Translational Sciences (NCATS), 2011).
The campaign covered roughly 44,000 compounds. About 340 (0.77%) were called active. Another 5% or so got no clear call; they are omitted. The call rests on the fitted dose curve; in most records, active means well fitted inhibition curve with a large enough effect; inconclusive means small, poorly fitted or top-dose-only effect; inactive means flat fitted curve, though single readings scatter. The list shows a part of the results.

Test: Acumen qHTS Assay for Inhibitors of the mTORC1 Signaling Pathway in MEF (Tsc2-/-, p53-/-) Cells: Sytravon;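 further: plate controls were DMSO for no effect and rapamycin for full effect; nearly all actives have a fitted effect of over 50% in size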
Conditions: phospho-rpS6 immunofluorescence/PI, 24 h; series mostly up to 38.3 µM; activity change, negative = inhibition: at the top concentration
Method in brief: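 Read-out: phospho-S6 Alexa-488 intensity over PI intensity per well, scored as % active cells using thresholds from rapamycin (7.5 nM) and DMSO controls. Tsc2-/-, p53-/- MEFs exposed to compound for 24 h; PI cell count recorded as viability.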

Activity change, negative = inhibition, inactive:
CCOC(=O)c1sc(NC(=O)c2cc3nc(-c4ccc(Br)cc4)cc(C(F)(F)F)n3n2)c(C(=O)OCC)c1C -2.57%
CCOC(=O)CCn1nc(C)c2c(C)n(-c3ccccc3)nc2c1=O -16.6%
Cc1ccc(NC(=O)c2ccc(Br)cc2)c(C(=O)c2ccccc2)c1 2.72%
CC(C)CC(=O)Nc1ccc(Cl)c(-c2nc3ccccc3[nH]2)c1 -14.5%
Cc1nc2nc(SCC(=O)NCc3ccccc3)nn2c(C)c1Cc1ccccc1 -29.1%
COc1ccc(OC)c(CNC(=O)CN2C(=O)CCn3nc(-c4cn(C)c5ccccc45)cc32)c1 0.412%
N#Cc1ccc(NS(=O)(=O)c2ccc(-c3cnc(C4CC4)o3)cc2)cc1 12.2%
CCc1cccc(NC(=O)CN2C=NS(=O)(=O)c3ccccc32)c1 2.29%
CCOC(=O)c1ccccc1NC(=O)N(Cc1ccco1)C1CCN(C(C)=O)CC1 -1.25%
CNC(=O)c1ccc(Nc2nnc(-c3ccc(C)c(S(=O)(=O)N4CCOCC4)c3)c3ccccc23)cc1 18%
CCOc1nc(NC(=O)NS(=O)(=O)Oc2ccccc2Cl)nc(-c2ccccc2)n1 1.08%
Cc1ccc(C)n1-c1nnc(N2CCCC(C(=O)NCc3ccccc3)C2)s1 (stereo not given) -11.7%
COc1cc2nc(NCC(C)c3ccccc3)n3nc(-c4ccccc4)nc3c2cc1OC (stereo not given) -2.55%
Cc1ccc(N(Cc2cccs2)C(=O)COc2ccccc2[N+](=O)[O-])cc1 -2.76%
O=C(c1ccco1)n1nc(-c2ccccc2)nc1NCc1ccccc1Cl -2.88%
CC(=O)Nc1ccc(S(=O)(=O)NCCc2csc3nc(-c4cccc(C)c4)nn23)cc1 0.0882%
Cc1cccc(-c2nc(Cn3c(SCc4cc(C)ccc4C)nc4ccncc43)c(C)o2)c1 -0.562%
CCc1ccc(NC(=O)CSc2nc3ccsc3c(=O)n2C(C)CC)cc1 (stereo not given) -1.76%
O=C(NCc1ccccc1)C(=O)NCC(c1cccnc1)N1CCN(c2ccccc2)CC1 (stereo not given) 3.23%
Cc1ccc(-c2nn3c(-c4ccc(C)cc4)nnc3c3ccccc23)cc1 1.9%
COc1ccccc1-n1c(SCC(=O)Nc2ccc(C)cc2)nc(O)cc1=O -6.62%
O=C(CCCn1c2ccccc2c(=O)c2ccccc21)Nc1ccc(F)cc1Cl -6.47%
COc1cc(CN(C(=O)c2oc3ccccc3c2C)C2CCS(=O)(=O)C2)cc(OC)c1OC (stereo not given) 6.22%
COc1cccc(NC(=O)c2cc3c(=O)n(Cc4cccnc4)ccc3nc2C)c1 -8.08%
COc1ccccc1CNC(=O)CCC1N=C2c3ccccc3N=C(SCC(=O)NCCc3ccc(OC)c(OC)c3)N2C1=O (stereo not given) 1.3%
Cc1ccc(-c2nc(S(=O)(=O)c3ccc(C)cc3)c(SCC(=O)NC3CCCCC3)o2)cc1 8.26%
COc1cc(NS(=O)(=O)c2ccc3oc(=O)c4ncn(C)c4c3c2)cc(OC)c1 -2.51%
COc1ccc(-c2noc(-c3ccc(NC(C)c4ccccc4)c([N+](=O)[O-])c3)n2)cc1OC (stereo not given) 6.33%
CCc1ccc(-c2cc(C)no2)cc1S(=O)(=O)Nc1ccc(Cl)cc1 -18.2%
CN(C)c1ccc(NC(=O)CSC2=Nc3ccccc3C3=NC(CC(=O)NCc4ccccc4)C(=O)N23)cc1 (stereo not given) 0.29%
CCOc1ccccc1CN(CCc1ccc2c(c1)OCO2)Cc1cccc(OC)c1OC -27.5%
CCOC(=O)c1c(C)[nH]c(CCC(=O)NCc2ccccc2C)c1C 3.21%
COc1cc(NC(=O)C(CCS(C)(=O)=O)N2Cc3ccccc3C2=O)cc(OC)c1OC (stereo not given) -0.853%
COc1cccc(C2CC(=O)N3CN(C4CCCCC4)CSC3=C2C#N)c1 (stereo not given) -4.82%
CC1CN(C(=O)N2CCC(C(=O)NC3CCCCCC3)CC2)c2ccccc2O1 (stereo not given) -3.39%
CCCN1C(=O)c2[nH]nc(-c3ccc(F)cc3)c2C1c1ccccn1 (stereo not given) -1.03%
Cc1ccc(N2CC(c3nnc(NC(=O)c4ccco4)s3)CC2=O)cc1C (stereo not given) 0%
O=C(NC1CCCC1)c1ccc(CSc2nc3ccncc3n2Cc2ccc(F)cc2)cc1 -11.6%
COc1ccc(-n2cc(C(=O)NC(C)c3ccccc3)c3ccccc3c2=O)cc1 (stereo not given) 7.13%
Cc1ccc(NC(=O)Cn2cc(S(=O)(=O)N3CCCC3)c(S(=O)(=O)N3CCCC3)c2)cc1C 1.95%
CCOc1ccc(NC(=O)c2ccc(-c3cccc(Cl)c3C)o2)cc1 12.3%
O=c1c2cc3c(nc2ncn1Cc1ccccc1F)CCCC3 -0.578%
CCOC(=O)c1cnc2c(ccc3ccccc32)c1Nc1ccc(OC)c(OC)c1 -12.7%
Cc1cccc(C2C=C(c3ccc(F)cc3)Nc3nc4ccccc4n32)c1 (stereo not given) -1.28%
CCOc1ccc(Cn2c(CNS(=O)(=O)c3ccc([N+](=O)[O-])cc3)nc3cccnc32)cc1 4.45%
COc1ccc(C(=O)NCCSc2c(C)[nH]c3ccccc23)cc1 -11.9%
COCCn1ccc2c(OCC(=O)NCc3ccc(F)cc3)cccc2c1=O -3.62%
Cc1ccc(NC(=O)Nc2nnc(SCC(=O)N3CCC(C)CC3)s2)cc1 2.88%
COc1ccc(C(=O)N2CCC(c3c[nH]c4ccccc34)(c3c[nH]c4ccccc34)CC2)cc1 3.42%
COc1ccccc1CNC(=O)c1oc2c(c1C)-c1nn(Cc3ccc(Cl)cc3)cc1CC2 12.1%
COc1ccc(NC(=O)c2cc(C3CC3)nc3c2c(C)nn3-c2ccc(C)cc2)cc1OC -0.843%
CN(C)c1ccc(CNC(=O)C2CCN(S(=O)(=O)c3cn(C)cn3)CC2)cc1 0%
Cc1ccc(C)c(CN2C(=O)c3ccccc3S(=O)c3ccc(C(=O)NCCc4ccc(Cl)cc4)cc32)c1 (stereo not given) -3.55%
COc1ccc(NC(=O)c2sc3nc(-c4cc5cccc(OC)c5oc4=O)[nH]c(=O)c3c2C)cc1 5.08%
CCOc1ccc(N(CC)S(=O)(=O)N2CCCC(C(=O)NCc3ccc(SC)cc3)C2)cc1 (stereo not given) -18.2%
COc1cccc(CNC(=O)NCc2noc3ccc(C)cc23)c1 2.05%
Cc1ccc(NC(=O)CN2C=NS(=O)(=O)c3ccccc32)c(C)c1 -6.16%
COc1ccc(NC(=O)CN2C(=O)COc3ccc(S(=O)(=O)N4CCOCC4)cc32)cc1Cl 0.254%
COc1ccc(NC(=O)Nc2nnc(N3CCCCCC3)s2)c(OC)c1 0.387%
COc1ccc(N2CCN(C(=O)CCS(=O)(=O)c3cc(Br)cc4c3N(C(=O)C3CC3)CC4)CC2)cc1 -14.5%
